Screen size: about 270,000 compounds; about 5,800 (2.1%) were called active. Inconclusive means that the source gave no clear call. Such entries were picked first, then a sample of the others. Calls follow the shape of the dose curve; as a rule, active = well fitted inhibition curve with a large enough effect; inconclusive = small, poorly fitted or top-dose-only effect; inactive = flat fitted curve, though single readings scatter. A potency beside an inconclusive call is a rough fit, not a confirmed value.
Each compound was assayed against Microtubule-associated protein tau (Homo sapiens) (UniProt P10636) (assay: qHTS for Inhibitors of Tau Fibril Formation, Thioflavin T Binding). Conditions: recombinant tau K18 P301L (four-repeat tau fragment), heparin-induced fibrillization, ThT fluorescence; series mostly up to 57.4 µM; activity, negative = inhibition: at the top concentration.
Sequence of UniProt P10636 (P10636 whole entry, looked up, the tested form may be a part): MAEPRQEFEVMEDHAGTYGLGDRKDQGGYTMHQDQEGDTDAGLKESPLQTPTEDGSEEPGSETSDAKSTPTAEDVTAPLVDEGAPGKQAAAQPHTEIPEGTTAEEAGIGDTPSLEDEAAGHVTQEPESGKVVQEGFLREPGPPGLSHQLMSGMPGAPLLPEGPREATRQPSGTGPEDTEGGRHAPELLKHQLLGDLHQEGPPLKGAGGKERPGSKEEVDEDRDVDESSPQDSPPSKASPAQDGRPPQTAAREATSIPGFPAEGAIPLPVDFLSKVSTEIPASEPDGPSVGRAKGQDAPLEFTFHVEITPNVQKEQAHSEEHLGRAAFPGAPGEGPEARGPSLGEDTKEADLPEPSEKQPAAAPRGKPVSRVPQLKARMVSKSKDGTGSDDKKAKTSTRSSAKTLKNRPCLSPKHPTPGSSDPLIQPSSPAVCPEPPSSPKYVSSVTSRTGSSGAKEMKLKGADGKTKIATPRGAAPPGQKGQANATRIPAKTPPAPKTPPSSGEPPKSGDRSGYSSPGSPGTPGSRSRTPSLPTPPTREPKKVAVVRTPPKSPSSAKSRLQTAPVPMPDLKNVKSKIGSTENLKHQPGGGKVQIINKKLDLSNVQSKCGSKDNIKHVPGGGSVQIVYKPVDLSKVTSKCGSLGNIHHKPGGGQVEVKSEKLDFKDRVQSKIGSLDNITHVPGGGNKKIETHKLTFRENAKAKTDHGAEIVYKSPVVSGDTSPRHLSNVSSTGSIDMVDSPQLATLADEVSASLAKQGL
Outline: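 In this qHTS, human K18 P301L tau is incubated with compound and heparin for 6 hr at 37 C, and Thioflavin T fluorescence then reports fibril load.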
For CCOC(=O)N1CCc2c(sc(N)c2C#N)C1, the Potency was inconclusive: 22.4 µM [inhibitor, single point].
N#Cc1c(/N=C/c2cccs2)sc2c1CCCCC2 was tested, and the Potency was active: 3.16 µM.
With COC(=O)c1sc2cccc(F)c2c1S(=O)(=O)N1CCN(c2cccc(C)c2)C(C)C1 (stereo unspecified) the “activity, negative = inhibition” value was inactive: -6.33%.
For COc1ccc2[nH]c3c(c2c1)CCn1c-3nc2sc(C(=O)Nc3ccccc3)c(C)c2c1=O, the Potency was inconclusive: 1 µM [inhibitor, partial curve].
In the case of Cc1ccc(NC(=O)CSc2nc3ccccc3c3nc(CCc4c(C)n[nH]c4C)nn23)cc1F, the Potency is reported as inconclusive: 14.1 µM [inhibitor, partial curve].
For COC(=O)c1ccc(NC(=O)CC2C(=O)N(c3cccc(OC)c3)C(=O)N2C(C)C)cc1 (stereo unspecified), the Potency was inconclusive: 28.2 µM [inhibitor, partial curve].
N=C1C(c2nc(-c3ccc(F)cc3)cs2)=C(O)CN1CCCN1CCOCC1 was tested, and the Potency was inconclusive: 31.6 µM [inhibitor, single point].
With COc1cc(NC(=O)c2cc(-c3cccc(OC)c3)n[nH]2)cc(OC)c1 the Potency was inconclusive: 25.1 µM [activator, single point].
With O=C(O)C1CCN(C(=O)COc2ccc3c4c(c(=O)oc3c2)CCC4)CC1 the Potency was inconclusive: 39.8 µM [inhibitor, single point].
O=C1C(=O)c2ccccc2C(O)=C1c1cccc([N+](=O)[O-])c1 was tested, and the Potency was inconclusive: 28.2 µM [inhibitor, partial curve].
CCOc1ccccc1C(=O)NC(C(=O)NCc1ccccc1OC)C(C)C (stereo unspecified) was tested, and the “activity, negative = inhibition” value was inactive: -3.94%.
With O=C(CNC(=O)c1ccncc1)N/N=C/c1ccc(O)cc1O the “activity, negative = inhibition” value was inactive: 2.36%.
Cc1ccc(NC(=O)CCN2CCN(C/C=C/c3ccccc3)CC2)cc1C was tested, and the “activity, negative = inhibition” value was inactive: -7.99%.
With CCOC(=O)c1cc(C(=O)OCC)c(=O)[nH]c1C the Potency was inconclusive: 25.1 µM [inhibitor, partial curve].
With COc1ccc(CNC(=O)COC(=O)c2ccco2)cc1 the “activity, negative = inhibition” value was inactive: 1.91%.
With N#C/C(=N\Nc1ccccc1)C(=N)N1CCOCC1 the Potency was inconclusive: 35.5 µM [inhibitor, single point].
In the case of CC(C)c1ccc(/C=C/C(=O)n2nnc3ccccc32)cc1, the Potency is reported as active: 20 µM.
CCOc1ccc(-n2c(SCC(=O)Nc3ccc(CC)cc3)nc3c(oc4ccccc43)c2=O)cc1 was tested, and the “activity, negative = inhibition” value was inactive: -7.15%.
With CCn1c(COc2ccccc2)nnc1SCC(=O)CC(=O)Nc1ccccc1OC the Potency was inconclusive: 11.2 µM [inhibitor, partial curve].
C/C(=N\O)C(=O)C(CN1CCCCC1)CN1CCCCC1 was tested, and the Potency was inconclusive: 25.1 µM [inhibitor, single point].
COc1ccc(N2C(=O)NC(NC(=O)c3ccncc3)(C(F)(F)F)C2=O)cc1 (stereo unspecified) was tested, and the “activity, negative = inhibition” value was inactive: 1.5%.
With O=C(NC1CCC(O)CC1)c1ccc(-c2ccc([N+](=O)[O-])cc2)o1 (stereo unspecified) the Potency was inconclusive: 8.91 µM [inhibitor, partial curve].
O=c1c(/C=N/Nc2ccccc2)c(Sc2nnnn2-c2ccccc2)nc2ccccn12 was tested, and the Potency was inconclusive: 14.1 µM [inhibitor, partial curve].
CC1CCN(C(=O)C2CCC(CNS(=O)(=O)c3cccc4cccnc34)CC2)CC1 (stereo unspecified) was tested, and the Potency was inconclusive: 25.1 µM [inhibitor, partial curve, poor fit].
For C=CCNC(=S)N/N=C/c1ccc(-c2ccc(OC)cc2)o1, the Potency was inconclusive: 8.91 µM [inhibitor, partial curve].
In the case of CCOc1ccc2sc(NS(=O)(=O)c3ccc(N)cc3)nc2c1, the Potency is reported as inconclusive: 25.1 µM [inhibitor, single point].
CCCCOc1ccc(C(=O)NCc2nnnn2-c2ccc(C)c(C)c2)cc1 was tested, and the Potency was inconclusive: 39.8 µM [inhibitor, single point].
In the case of O=C(/C=C/Nc1ccccc1)c1ccc(Oc2ncccn2)cc1, the Potency is reported as inconclusive: 2.82 µM [inhibitor, full curve].
For O=C(CNC(=O)c1ccc(Br)o1)OCC(=O)c1cccc([N+](=O)[O-])c1, the “activity, negative = inhibition” value was inactive: -2.29%.
With CC1CCCN(C(=O)Cn2ncc3c([nH]c4ccccc43)c2=O)C1 (stereo unspecified) the “activity, negative = inhibition” value was inactive: -0.479%.
O=C(COC(=O)CCSc1ccc(Cl)cc1)NCc1ccccc1 was tested, and the “activity, negative = inhibition” value was inactive: -9.07%.
With Cc1cccc(N2CCN(C(=O)c3c(C)nn(Cc4ccccc4Cl)c3C)CC2)c1C the Potency was inconclusive: 35.5 µM [inhibitor, partial curve].
With CC(Oc1ccc(Cl)cc1Cl)c1ccnc2nc(N3CCOCC3)nn12 (stereo unspecified) the Potency was inconclusive: 17.8 µM [inhibitor, single point].
For O=C(Nc1ccc(OCc2ccccc2)cc1)c1cccc([N+](=O)[O-])c1, the Potency was inconclusive: 0.224 µM [inhibitor, full curve, poor fit].
In the case of CCC(C)N(C(=O)CSc1ccc(NC(C)=O)cc1)C1CCS(=O)(=O)C1 (stereo unspecified), the “activity, negative = inhibition” value is reported as inactive: -3.91%.
In the case of CCCCC1(Cc2cccc([N+](=O)[O-])c2)C(=O)N(c2ccccc2)N(c2ccccc2)C1=O, the “activity, negative = inhibition” value is reported as inactive: -6.08%.
CCOC(=O)C1=C(C)N=C(SC)N(C)C1c1ccccc1 (stereo unspecified) was tested, and the Potency was inconclusive: 39.8 µM [inhibitor, single point].
COc1ccc(N(C(=O)c2ccc(C(C)(C)C)cc2)S(=O)(=O)c2ccc(Cl)cc2)cc1 was tested, and the “activity, negative = inhibition” value was inactive: -13.6%.
In the case of CCOc1ccc(OCc2cccc(C(=O)N3CCCCCC3)c2)cc1, the “activity, negative = inhibition” value is reported as inactive: -10.3%.
In the case of Cc1ccc(N2CC(NC(=O)c3cccc(Cl)c3)CC2=O)cc1C (stereo unspecified), the “activity, negative = inhibition” value is reported as inactive: -2.76%.
With CCNc1nc(-c2cc3ccccc3o2)cs1 the Potency was inconclusive: 17.8 µM [inhibitor, single point].
In the case of COc1ccc(C2/C=C\CN(Cc3ccc(N(C)C)cc3)CC(=O)N2Cc2ccc(F)cc2)cc1 (stereo unspecified), the Potency is reported as inconclusive: 15.8 µM [inhibitor, single point].
With COc1ccc(Cn2c(=O)[nH]c3cc(C(=O)NCCCN4CCCC4=O)ccc3c2=O)cc1 the Potency was inconclusive: 22.4 µM [inhibitor, single point].
In the case of O=C(NCCc1csc2nc(-c3ccccc3F)nn12)C(=O)Nc1cc(F)ccc1F, the “activity, negative = inhibition” value is reported as inactive: 3.62%.
For O=S(=O)(Nc1cc(Sc2cccc3cccnc23)c(O)c2ccccc12)c1ccc(F)cc1, the Potency was active: 12.6 µM.
With O=C(NCCCN1CCN(c2cccc(Cl)c2)CC1)c1cnn(-c2ccc(F)cc2)c1-n1cccc1 the Potency was inconclusive: 22.4 µM [inhibitor, single point].

Reference: PubChem BioAssay AID1460 (National Center for Advancing Translational Sciences (NCATS), 2008)
% is scaled to controls: 0 for no effect and ±100 for the full control effect; potency is read from the fitted curve at half-maximal effect; tags tell the direction and shape of the fitted curve.
Also: nearly all actives have a fitted effect of over 55% in size.
